Data on 113 molecules can be found in PubChem BioAssay AID488969 (Vanderbilt High Throughput Screening Facility, 2010).

The full ranking holds about 110,000 compounds; the median of “z-score” is about -0.1, and the highest 2% start at about 2. This is one part of the list. Calls of active or inactive are those of the source.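 How the source made its calls: active means z-score in the third read window above 3 or below -3; inactive means the rest.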

The target of the experiment is Metabotropic glutamate receptor 8 (Rattus norvegicus) (UniProt P70579). Put plainly: rat mGluR8 modulators via GIRK flux, primary screen, cell-based, thallium flux, HTS (AID 488969). The note with it: HEK293 rat mGluR8, GIRK (G protein-gated inwardly rectifying potassium channel) thallium flux, FluoZin2; at 10 µM; stronger effect = higher value; submaximal glutamate (EC20) added with thallium.
UniProt P70579, sequence (P70579 whole entry, looked up): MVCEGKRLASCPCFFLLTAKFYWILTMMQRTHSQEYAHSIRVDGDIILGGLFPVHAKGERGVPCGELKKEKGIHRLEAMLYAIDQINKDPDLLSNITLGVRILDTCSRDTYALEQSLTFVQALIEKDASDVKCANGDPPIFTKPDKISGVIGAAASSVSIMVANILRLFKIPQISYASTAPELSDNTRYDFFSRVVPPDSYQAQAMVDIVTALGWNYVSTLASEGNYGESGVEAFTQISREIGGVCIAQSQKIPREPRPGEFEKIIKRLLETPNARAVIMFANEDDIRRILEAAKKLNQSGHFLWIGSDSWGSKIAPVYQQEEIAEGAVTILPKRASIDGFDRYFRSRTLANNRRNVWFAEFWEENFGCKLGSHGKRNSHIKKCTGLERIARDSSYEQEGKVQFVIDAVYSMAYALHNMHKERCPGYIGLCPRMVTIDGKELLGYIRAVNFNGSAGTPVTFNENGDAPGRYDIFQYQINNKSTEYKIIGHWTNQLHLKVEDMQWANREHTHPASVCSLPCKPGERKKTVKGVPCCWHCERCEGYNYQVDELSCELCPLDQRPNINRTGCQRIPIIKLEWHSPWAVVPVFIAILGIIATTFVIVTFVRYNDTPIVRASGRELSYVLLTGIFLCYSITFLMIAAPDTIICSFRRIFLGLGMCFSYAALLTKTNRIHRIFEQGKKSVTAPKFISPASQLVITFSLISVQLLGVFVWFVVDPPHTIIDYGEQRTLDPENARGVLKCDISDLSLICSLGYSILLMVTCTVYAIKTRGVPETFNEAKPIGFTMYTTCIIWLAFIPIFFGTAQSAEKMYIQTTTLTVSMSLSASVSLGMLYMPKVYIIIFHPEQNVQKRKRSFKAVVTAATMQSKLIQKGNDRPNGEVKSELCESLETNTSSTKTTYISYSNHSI
Take `CS(=O)(=O)N1CCN(c2ccc([N+](=O)[O-])c(NCc3ccc(Cl)cc3)c2)CC1`: the z-score was determined as 0.0438.

For `O=C(Nc1ccccc1)/C(=C/c1cccnc1)NC(=O)c1ccco1`, the z-score is -0.163.

For `Cc1cccc(/C=N\NC(=O)c2sccc2-n2cccc2)c1`, the z-score came out at 0.485.

For `N#CCO/N=C(\c1ccccc1)c1ccncc1`, the z-score is -0.105.

Turning to `CCN(CC)CCCNc1nc2ccccc2[nH]1`, the z-score is -0.313.

With `CSc1ccccc1C(=O)Nc1ncc(C)s1`, the z-score was -0.0376.

For `CN1CCN(c2nc3nonc3nc2N2CCN(C)CC2)CC1`, the z-score was -0.0776.

In the case of `Cc1c(Cl)cccc1NC(=O)CNc1cccc(S(=O)(=O)N(C)C)c1`, the z-score was -0.138.

Turning to `CCCCSc1nnc(CNC(=O)C23CC4CC(CC(C4)C2)C3)n1Cc1ccccc1`, the z-score was -0.0872.

Consider `Cc1ccc(-c2nc3ccccc3[nH]2)s1`, for which the z-score was found to be 1.21.

In the case of `O=C1NC(=O)/C(=C\c2ccc(Sc3ccc(Cl)cc3)o2)N1`, the z-score is -0.263.

With `O=C(NCCN1CCOCC1)c1ccc(CS(=O)(=O)c2c(Cl)cccc2Cl)o1`, the z-score was -0.288.

As to `COc1ccccc1C(=O)NC(C)C(c1cccs1)N1CCOCC1` (stereo not drawn), the z-score is -0.0315.

`COc1ccc(C2c3c(ccc4ccccc34)Oc3ncn4nc(-c5ccco5)nc4c32)cc1OC` (stereo not drawn): the z-score turned out to be 0.134.

As to `COC(=O)c1c(NC(=O)CSc2nc(-c3ccco3)cc(C(F)(F)F)n2)sc2c1CCCC2`, the z-score is 0.000118.

Turning to `O=C(c1ccc([N+](=O)[O-])cc1)N(Cc1ccc(Cl)cc1)N1C(=O)CCCC1=O`, the z-score is -0.682.

Consider `Cc1ccc2cc(C)c(N3CCN(c4ccccn4)CC3)nc2c1`, for which the z-score turned out to be 0.37.

On to `Cc1ccc(-c2cc(C(=O)N3CCOCC3)c3ccccc3n2)cc1`, for which the z-score was -0.108.

For `Cc1nn(-c2ccccc2)c2[nH]c(C(F)(F)F)cc(=O)c12`, the z-score is -0.749.

For `O=C(COc1ccc2ccccc2c1)NNC(=O)[C@@H]1CCCC[C@@H]1C(=O)O`, the z-score was -0.306.

`CN1CCN(c2ccc(S(=O)(=O)N3CCCCC3)cc2NC(=O)c2ccc(F)cc2F)CC1`: the z-score is -0.252.

Take `Cc1ccccc1Cn1nc(C)c(NC(=O)c2sc3ccccc3c2Cl)c1C`: the z-score is -0.431.

`CC1(C)CC(=O)C(C=NCCCN2CCOCC2)=C(O)C1`: the z-score came to 0.63.

`O=C(CN1CCOCC1)NCc1ccccc1` returned a z-score of 0.831.

As to `O=C(Nc1ccc(F)cc1)NC1CCCCC1`, the z-score stood at 0.532.

Turning to `NC1=NC(=O)/C(=C/c2c(OS(=O)(=O)c3ccc(Cl)cc3)ccc3ccccc23)S1`, the z-score is -0.185.

Consider `CCN(CC)S(=O)(=O)c1ccc(Cl)c(NC(=O)COC(=O)c2c(C)noc2C)c1`, for which the z-score was -0.312.

As for `CCn1cc(C(=O)NCCCOC)c(=O)c2cc(S(=O)(=O)N(C)C)ccc21`, the z-score is -0.209.

For `Cc1ccc(N2CCN(/N=C/C=C/c3ccccc3)CC2)cc1`, the z-score is -0.48.

For the molecule `COCCNC(=O)c1ccccc1-c1nc(-c2ccccc2OC)no1`, the z-score came out at 0.0674.

For the molecule `CCOC(=O)c1[nH]c(C)c(C(=O)NCc2cccnc2)c1C`, the z-score is -0.309.

On to `CCOC(=O)C1=C(C)NC2=C(C(=O)c3ccccc32)C1c1ccc(O)cc1` (stereo not drawn), for which the z-score was -0.0608.

Take `Cc1ccc(Cn2nnc3c(=O)n(CC(=O)N4CCCc5ccccc54)cnc32)cc1`: the z-score is 0.595.

On to `Cc1cccc(N/C(N)=N/c2nc(C)cc(C)n2)c1`, for which the z-score is -0.113.

Turning to `O=C1C=C(NCC2CCCO2)CC(c2ccccc2)C1` (stereo not drawn), the z-score was 0.797.

In the case of `COC(=O)c1cccc(N2C(=O)c3ccccc3S2(=O)=O)c1`, the z-score is -0.0086.

With `CCn1c(=O)cc(OCC(=O)Nc2nc(C)cs2)c2ccccc21`, the z-score was -0.697.

Consider `C=CCNC(=O)NC(=S)c1ccccc1`, for which the z-score is active: 3.72.

Take `O=C(CSc1nnc(C2CC2)n1-c1ccccc1)Nc1ccc(N2CCOCC2)cc1`: the z-score is -0.231.

For the molecule `Brc1ccc(NC2=Nc3ccccc3CC2)cc1`, the z-score was -0.031.

Turning to `COc1nnc(-c2ccc(N3CCOCC3)c(NC(C)=O)c2)c2ccccc12`, the z-score was -1.64.

`C=CCSC1=N/C(=C\c2ccc(C)o2)C(=O)S1` gave a z-score of 0.449.

For the molecule `O=C(Cn1c(=O)sc2ccccc21)NCCOc1ccccc1F`, the z-score was -0.567.

Regarding `COc1ccccc1-c1nnc2n1N=C(C)CS2`, the z-score is 0.851.

As to `COc1cccc(-n2nnc3c(=O)n(Cc4ccc(Cl)cc4)cnc32)c1`, the z-score was -0.237.

On to `Cc1ccc2cc(CCNC(=O)c3ccc4c(c3)OCO4)c(=O)[nH]c2c1C`, for which the z-score was -0.854.

`Cc1ccc(CSCC(=O)N/N=C/c2sccc2C)cc1` returned a z-score of 1.26.

`CCOc1cc(C(=O)N(C)c2ccccc2)cc(OCC)c1OCC` registered a z-score of 0.317.

Take `Cc1ccc2c(CSc3nnc(N)s3)cc(=O)oc2c1`: the z-score was -0.395.

On to `CCn1c(/C=C2/C(=O)N(C)c3ccccc32)nc2ccccc2c1=O`, for which the z-score is -0.0307.

In the case of `O=S(=O)(N/N=C/c1ccc(OC2CSC2)cc1)c1ccccc1`, the z-score is -0.00217.

For `COc1ccc(NC(=O)CC2C(=O)N(c3ccccc3)C(=O)N2CCc2cccs2)cc1` (stereo not drawn), the z-score was -0.197.

`C=CCn1c(Cc2ccc(OC)cc2)nnc1SCC(=O)c1cccc([N+](=O)[O-])c1`: the z-score was -0.234.

As to `COC(CNC(=O)c1ccc2c(c1)nc(C)n2-c1cccc(F)c1)OC`, the z-score was -0.149.

Turning to `CCCC(CCC)C(=O)Nc1c[nH]c(=O)[nH]c1=O`, the z-score came out at 0.0953.

Regarding `Cc1nc2ccccc2n1CCC(=O)O`, the z-score was -0.341.

Regarding `COc1nc(N/N=C/c2cc3c(cc2Br)OCO3)nc(N2CCOCC2)n1`, the z-score was -0.297.

Turning to `CCOC(=O)c1c(C)[nH]c(C(=O)Nc2ccc3c(c2)OCO3)c1C`, the z-score is -0.531.

For `COc1cc(C2C(C(=O)c3ccc(C)o3)=C(O)C(=O)N2CCc2ccccc2)ccc1O` (stereo not drawn), the z-score was -0.133.

Regarding `COc1nc(-c2ccccc2)ccc1-c1noc(-c2ccccc2F)n1`, the z-score worked out at 0.0977.

In turn, `CC(=O)c1cccc(N(CC(=O)N2CCOCC2)S(C)(=O)=O)c1` yielded a z-score of 0.157.

Consider `Cc1ccccc1NC(=S)Nc1ccc(Br)cc1`, for which the z-score came out at 0.0317.

With `COc1ccc(/C=N/NC(=O)CSc2nnc(C)n2-c2ccccc2)c(OC)c1OC`, the z-score is -0.14.

Take `COc1ccc(OC)c(C2SCCN2S(=O)(=O)c2cccc(C(F)(F)F)c2)c1` (stereo not drawn): the z-score was -0.785.

On to `COP(=O)(OC)c1nc(-c2ccccc2)oc1NCc1ccccc1`, for which the z-score is -0.463.

On to `O=C(O)c1cc2c(s1)-c1ccccc1CC2`, for which the z-score is -0.417.

For the molecule `O=C(c1cc2ccccc2oc1=O)N1CCN(Cc2ccc3c(c2)OCO3)CC1`, the z-score is -1.3.

For `COCCCNC(=O)COc1ccc(-c2nccc(-c3ccccn3)n2)cc1`, the z-score was 0.155.

In the case of `Clc1cccc(Cl)c1/C=N\Nc1nccs1`, the z-score is -0.215.

As for `O=C(NC(=S)Nc1ccc(CN2CCOCC2)cc1)c1ccc([N+](=O)[O-])cc1`, the z-score was determined as 0.649.

As for `O=C(Oc1ccnc2cc(Cl)ccc12)N1CCOCC1`, the z-score was -0.719.

`COc1ccc(/C=C/C(=O)CC(O)(c2ccccc2)C(F)(F)F)cc1` (stereo not drawn) showed a z-score of 0.457.

As to `Cc1cccc(CSCCNC(=O)Nc2ccccc2)c1`, the z-score was -0.872.

Consider `CCOC(=O)CSc1cc(CS(=O)(=O)c2ccccc2)nc(-c2ccccc2)n1`, for which the z-score is -0.223.

In the case of `CCN(CC)c1ccc(C2=NNC(=O)CC2C)cc1[N+](=O)[O-]` (stereo not drawn), the z-score was -0.192.

With `CCCN(CCC)C1=N/C(=C\c2ccco2)C(=O)N1c1ccccc1`, the z-score is -0.536.

With `O=C1CC(c2c(F)cccc2Cl)C2=C(COC2=O)N1` (stereo not drawn), the z-score is -0.183.

In the case of `Cc1ccc(C)c(NC(=O)Cn2nc([N+](=O)[O-])c(Br)c2C)c1`, the z-score was found to be 0.0369.

Take `NS(=O)(=O)c1ccc(NC(=O)COC(=O)C2(c3ccccc3F)CCCC2)cc1`: the z-score is -0.382.

`COc1ccc(C(C)(C)C)cc1S(=O)(=O)N1CCN(C)CC1` had a z-score of 0.514.

`O=C(NO)C1CC2C=CC1C2` (stereo not drawn): the z-score is 0.117.

With `COc1cc(C2C(N3C(=O)c4ccccc4C3=O)C(=O)N2c2cccc(C)c2)cc(OC)c1OC` (stereo not drawn), the z-score is -0.098.

Turning to `COC(=O)c1ccc(COc2ccc(-c3nnn(CC(=O)NC(C)(C)C)n3)cc2)cc1`, the z-score was -0.234.

In turn, `Cc1ccc(C)c(C(=O)CN2C3=NCCCN3c3ccccc32)c1` returned a z-score of 0.0716.

The molecule `COc1ccc(-c2nnn(CC#N)n2)cc1OC` showed a z-score of 0.66.

In turn, `COc1ccccc1C(=O)NNC1=C(C(=O)C(F)(F)F)CCC1` returned a z-score of 0.881.

Take `COc1ccccc1NC(=O)c1c(C)cc(=O)oc1C`: the z-score is -0.0507.

Take `Cc1ncoc1C(=O)Nc1ccccc1-c1ccccc1`: the z-score is -0.54.

On to `CC1CN(C(=O)C(c2ccccc2)c2ccccc2)CC(C)O1` (stereo not drawn), for which the z-score was -0.159.

`CCOC(=O)N1CCN(CC(=O)Nc2ccc(OC)cc2)CC1` returned a z-score of 1.09.

For `COc1ccc(NC(=O)CN(C)C(=O)c2ccc(C)s2)cc1`, the z-score was -0.0453.

Take `Cc1cccc(C)c1NC(=O)N1CCN(C2CCCCC2)CC1`: the z-score stood at 0.807.

Regarding `Cn1cccc1C1Nc2ccccc2NC2=C1C(=O)CC(C)(C)C2` (stereo not drawn), the z-score is -0.491.

As for `CC(CCC(=O)Nc1nncs1)C(=O)O` (stereo not drawn), the z-score was -0.417.

With `Nc1nnc(SCC(=O)Nc2sc3c(c2C(=O)c2ccccc2)CCCC3)s1`, the z-score is -0.308.

With `Cc1nc2cc(NC(=O)N3c4ccccc4CC3C)ccc2n1C` (stereo not drawn), the z-score is -0.544.

As for `CC(C)CN(CC(C)C)S(=O)(=O)N1CCC(C(=O)NCCc2ccc(Cl)cc2)CC1`, the z-score was -0.189.

On to `Oc1ccc(Cl)cc1C=Nc1ccc2c3c(cccc13)CC2`, for which the z-score was -0.239.

`C[C@@H]1C[C@H](Nc2ccccc2)c2ccccc2N1C(=O)c1cccnc1`: the z-score was found to be 0.608.

Turning to `CCCN(CCC)Cc1cc2ccccc2c2c1COC2`, the z-score came to 0.142.

`CCC(NC(=O)NC1=NCCS1)(C(F)(F)F)C(F)(F)F` displayed a z-score of 0.399.

Turning to `O=C(Oc1cc(-c2ccccc2)no1)c1ccc(F)cc1`, the z-score is -0.196.

`COc1ccc(N=c2oc3ccc(OC)cc3cc2-c2nc3ccccc3[nH]2)cc1` gave a z-score of 0.132.

Regarding `COc1ccc2nc3oc(C(=O)Nc4ccc(OC)c(OC)c4)cc3cc2c1`, the z-score is active: 4.91.

Molecule `CCc1cc2c(=O)nc3n(c2s1)Cc1ccccc1/C3=C(/O)c1ccccc1Cl` came in with a z-score of 0.201.

Molecule `c1ccc2c(c1)[nH]c1nc(SCCN3CCOCC3)nnc12` came in with a z-score of 0.00762.

As for `Cc1cccc(-c2cc(C(=O)NCc3ccccn3)c3ccccc3n2)c1`, the z-score was -0.443.

The molecule `O=C(CN1CCSC1=NCc1ccccc1)c1ccc(Cl)c(Cl)c1` showed a z-score of 0.147.

The molecule `COc1cccc(NCc2cc3c(C(C)(C)C)nn(-c4ccccc4)c3[nH]c2=O)c1` registered a z-score of 0.377.

As to `NC(=O)CSc1nnc(-c2ccc(S(=O)(=O)N3CCCC3)cc2)o1`, the z-score is -0.271.

`O=C1c2ccccc2C(=O)c2cc(NC(=O)C3CC3)ccc21`: the z-score is -0.249.

With `Cc1cc(NC(=O)CSc2nc3ccsc3c(=O)n2NC(=O)c2ccccc2)no1`, the z-score is active: 3.32.

Consider `O=C(CCc1ccc(S(=O)(=O)NCCc2ccccc2)cc1)Nc1ccc2c(c1)OCO2`, for which the z-score worked out at 0.0814.
